Laboratory results reported in US10604555B2, “GIP derivatives and uses thereof” (priority 2018, dated 2020).
At least one structure is not confirmed: it was looked up by name or label, or the drawing left a doubt. *1 amine or outer side, *2 acyl side, *3 side chain or, on linkers, in order; H or OH if unused. Where a SMILES comes first, the peptide text is derived from it. Side-chain parts run from the residue outwards. [ ]: non-standard residue; d: D form. The star is where a group is joined. C18 diacid = O=C(O)CCCCCCCCCCCCCCCCC(=O)*; γGlu = O=C(O)[C@H](CCC(=O)[*:2])N[*:1]; Nle = CCCC[C@H](N)C(=O)O; Aib = CC(C)(N)C(=O)O

Tests used:
Assay type in all cases: physicochemical
[1] = ThT fibrillation assay (physical stability); conditions: 250 μM, pH 7.4, 37° C., 45 hours of incubation
Protocol: The Thioflavin T assay was performed as outlined in Schlein (2017), AAPS J, 19(2), 397-408.
This has traditionally been measured by visual inspection of the sample. However, that kind of measurement is very cumbersome and depending on the observer. Therefore, the application of a small molecule indicator probe is much more advantageous. Thioflavin T (ThT) is such a probe and has a distinct fluorescence signature when binding to fibrils [Naiki et al. (1989) Anal. Biochem. 177, 244-249; LeVine (1999) Methods. Enzymol. 309, 274-284].
The time course for fibril formation can be described by a sigmoidal curve with the following expression [Nielsen et al. (2001) Biochemistry 40, 6036-6046]:
Here, F is the ThT fluorescence at the time t. The constant t0 is the time needed to reach 50% of maximum fluorescence. The two important parameters describing fibril formation are the lag-time calculated by t0−2τ and the apparent rate constant kapp 1/τ.
Few of those intermediates nucleate to form a template onto which further intermediates may assembly and the fibrillation proceeds. The lag-time corresponds to the interval in which the critical mass of nucleus is built up and the apparent rate constant is the rate with which the fibril itself is formed.
Samples are prepared freshly before each assay. The drug substance was solved with 250 μM of the GIP derivative in 8 mM phosphate, 14 mg/mL propylene glycol, 58 mM phenol, pH 7.4. The pH of the sample was adjusted to the desired value using appropriate amounts of concentrated NaOH and HCl. Thioflavin T was added to the samples from a stock solution in H2O to a final concentration of 1 μM.
Sample aliquots of 200 μl were placed in each well of a 96 well microtiter plate (Packard OptiPlate™-96, white polystyrene). Four replica of each sample (corresponding to one test condition) was placed in one column of wells. The plate was sealed with Scotch Pad (Qiagen).
Incubation, shaking and measurement of the ThT fluorescence emission were done in a Fluoroskan Ascent FL fluorescence platereader (Thermo Labsystems). […] Fluorescence measurement was done using excitation through a 444 nm filter and measurement of emission through a 485 nm filter.
Each run was initiated by incubating the plate at the assay temperature for 10 min. The plate was measured every 20 minutes for a desired period of time. Between each measurement, the plate was shaken and heated as described.
After completion of the ThT assay the replica of each sample was pooled and centrifuged at 20000 rpm for 30 minutes at 18° C. The supernatant was filtered through a 0.22 μm filter and an aliquot was transferred to a HPLC vial. The concentration of the filtered sample relative to the initial sample (in percentage) was reported as the recovery.
The measurement points were saved in Microsoft Excel format for further processing and curve drawing and fitting was performed using GraphPad Prism. […] The data points were a mean of the four replica and shown with standard deviation error bars. Only data obtained in the same experiment (i.e. samples on the same plate) were presented in the same graph ensuring a relative measure of fibrillation between experiments.
The data set may be fitted to Eq. (1).

[2] = Dynamic Light Scattering Stability Index (DLS-SI); conditions: 250 μM, pH 7.4, 4 weeks at 25° C.
[3] = Chemical stability: HMWP formation by SEC-MS; conditions: 37° C., 4 weeks, 250 μM, pH 7.4
Protocol: The aim of this study is to determine the chemical stability of GIP derivative compositions. As a measure of stability of the GIP derivative composition, the formation of high molecular weight peptide formation (% HMWP) as a function of time was analysed by size-exclusion chromatography (SEC-MS). Further, the purity loss of the GIP derivative compositions was measured by LCMS. Samples for chemical stability assays were freshly prepared before each assay. […] The pH of the sample was adjusted to the desired value using appropriate amounts of concentrated NaOH and HCl. […] Formation of covalent oligomers (HMWPs) was analysed and identified by a SEC-MS method. […] The LC system was coupled to both a TUV detector operated at 215 nm, 10 Hz and a high resolution QToF mass spectrometer from Waters (Synapt G2S) operated in positive ion mode and m/z range of 100 to 4000 with normal resolution setting. Lock mass correction against Leu-Enkephalin was done every 31 sec. Spectra were processed in MassLynx version 4.1 and MaxEnt deconvoluted.

[4] = Chemical stability: purity loss by LCMS; conditions: 37° C., 4 weeks, 250 μM, pH 7.4
Protocol: The aim of this study is to determine the chemical stability of GIP derivative compositions. As a measure of stability of the GIP derivative composition, the formation of high molecular weight peptide formation (% HMWP) as a function of time was analysed by size-exclusion chromatography (SEC-MS). Further, the purity loss of the GIP derivative compositions was measured by LCMS. Samples for chemical stability assays were freshly prepared before each assay. […] The pH of the sample was adjusted to the desired value using appropriate amounts of concentrated NaOH and HCl. […] The column oven was kept at 55° C. […] The solvents were pumped from a binary solvent manager system and mixed on the high pressure side in a mixer with a volume of 50 μl. The gradient and flow can be seen in table 4: [table] A Flow-through-needle auto sampler at 8° C. was used to inject 1 μl of each sample. The effluent passed through a tunable UV detector (TUV) tuned to 215 nm. The outlet from the UV detector passed to the electrospray source of the mass spectrometer. The capillary was held at 3 kV and dry nitrogen gas was purged at a flow of 750 I/h and a temperature of 250° C. The source block was kept at 120° C. and the large bore cone was flushed with nitrogen at 50 I/h with standard electrode potentials on the rest of the instrument. The MS was operated in high resolution mode with a nominal resolution of 35000. The ToF analyser was operated in ADC mode with an m/z window from 100-2000.

Compound | ThT Assay Lag time [1] | DLS-SI Dimensionless [2] | DLS-SI precipitates [2] | HMWP formation (%/month) [3] | Purity loss (%/month) [4]
CCCC[C@H](NC(=O)[C@H](C)NC(=O)[C@@H](NC(=O)[C@H](CO)NC(=O)[C@H](Cc1ccc(O)cc1)NC(=O)[C@H](CC(=O)O)NC(=O)[C@H](CO)NC(=O)[C@@H](NC(=O)[C@H](Cc1ccccc1)NC(=O)[C@@H](NC(=O)CNC(=O)[C@H](CCC(=O)O)NC(=O)C(C)(C)NC(=O)[C@@H](N)Cc1ccc(O)cc1)[C@@H](C)O)[C@@H](C)CC)[C@@H](C)CC)C(=O)N[C@@H](CC(=O)O)C(=O)N[C@@H](CCCCN)C(=O)N[C@H](C(=O)N[C@@H](CCCNC(=N)N)C(=O)N[C@@H](CCC(N)=O)C(=O)NC(C)(C)C(=O)N[C@@H](CC(=O)O)C(=O)N[C@@H](Cc1ccccc1)C(=O)N[C@H](C(=O)N[C@@H](CCCCNC(=O)CC[C@H](NC(=O)CC[C@H](NC(=O)CC[C@H](NC(=O)CCCCCCCCCCCCCCCCC(=O)O)C(=O)O)C(=O)O)C(=O)O)C(=O)N[C@@H](Cc1c[nH]c2ccccc12)C(=O)N[C@@H](CC(C)C)C(=O)N[C@@H](CC(C)C)C(=O)N[C@@H](C)C(=O)N[C@@H](CCC(N)=O)C(=O)N[C@@H](CCCCN)C(=O)NCC(=O)O)C(C)C)[C@@H](C)CC [Compound 11, N{Epsilon-24}-[(4S)-4-carboxy-4-[[(4S)-4-carboxy-4-[[(4S)-4-carboxy-4-(17-carboxyheptadecanoylamino)butanoyl]amino]butanoyl]amino]butanoyl]-[Aib2,Nle14,Arg18,Aib20,Lys24]-hGIP(1-31)] (H-Y[Aib]EGTFISDYSIA[Nle]DKIRQ[Aib]DFVK([γGlu-γGlu-γGlu-C18 diacid])WLLAQKG-OH) | >45 h | 0 | No | −0.44 %/month | 2.64 %/month
CCCC[C@H](NC(=O)[C@H](C)NC(=O)[C@@H](NC(=O)[C@H](CO)NC(=O)[C@H](Cc1ccc(O)cc1)NC(=O)[C@H](CC(=O)O)NC(=O)[C@H](CO)NC(=O)[C@@H](NC(=O)[C@H](Cc1ccccc1)NC(=O)[C@@H](NC(=O)CNC(=O)[C@H](CCC(=O)O)NC(=O)[C@H](C)NC(=O)[C@@H](Cc1ccc(O)cc1)NC(C)=O)[C@@H](C)O)[C@@H](C)CC)[C@@H](C)CC)C(=O)N[C@@H](CC(=O)O)C(=O)N[C@@H](CCCCN)C(=O)N[C@H](C(=O)N[C@@H](CCCNC(=N)N)C(=O)N[C@@H](CCC(N)=O)C(=O)N[C@@H](CCC(N)=O)C(=O)N[C@@H](CC(=O)O)C(=O)N[C@@H](Cc1ccccc1)C(=O)N[C@H](C(=O)N[C@@H](CCCCNC(=O)CC[C@H](NC(=O)CC[C@H](NC(=O)CC[C@H](NC(=O)CCCCCCCCCCCCCCCCC(=O)O)C(=O)O)C(=O)O)C(=O)O)C(=O)N[C@@H](Cc1c[nH]c2ccccc12)C(=O)N[C@@H](CC(C)C)C(=O)N[C@@H](CC(C)C)C(=O)N[C@@H](C)C(=O)N[C@@H](CCC(N)=O)C(=O)N[C@@H](CCCCN)C(=O)NCC(=O)O)C(C)C)[C@@H](C)CC [Compound 7, N{1}-acetyl, N{Epsilon-24}-[(4S)-4-carboxy-4-[[(4S)-4-carboxy-4-[[(4S)-4-carboxy-4-(17-carboxyheptadecanoylamino)butanoyl]amino]butanoyl]amino]butanoyl]-[D-Tyr1,Nle14,Arg18, Lys24]-hGIP(1-31)] | >45 h | 1.7 | No | 0.00 %/month | 1.70 %/month
CCCC[C@H](NC(=O)[C@H](C)NC(=O)[C@@H](NC(=O)[C@H](CO)NC(=O)[C@H](Cc1ccc(O)cc1)NC(=O)[C@H](CC(=O)O)NC(=O)[C@H](CO)NC(=O)[C@@H](NC(=O)[C@H](Cc1ccccc1)NC(=O)[C@@H](NC(=O)CNC(=O)[C@H](CCC(=O)O)NC(=O)[C@H](C)NC(=O)[C@@H](Cc1ccc(O)cc1)NC(C)=O)[C@@H](C)O)[C@@H](C)CC)[C@@H](C)CC)C(=O)N[C@@H](CC(=O)O)C(=O)N[C@@H](CCCCN)C(=O)N[C@H](C(=O)N[C@@H](CCCNC(=N)N)C(=O)N[C@@H](CCC(N)=O)C(=O)N[C@@H](CCC(N)=O)C(=O)N[C@@H](CC(=O)O)C(=O)N[C@@H](Cc1ccccc1)C(=O)N[C@H](C(=O)N[C@@H](CCCCNC(=O)COCCOCCNC(=O)COCCOCCNC(=O)CC[C@H](NC(=O)CCCCCCCCCCCCCCCCC(=O)O)C(=O)O)C(=O)N[C@@H](Cc1c[nH]c2ccccc12)C(=O)N[C@@H](CC(C)C)C(=O)N[C@@H](CC(C)C)C(=O)N[C@@H](C)C(=O)N[C@@H](CCC(N)=O)C(=O)N[C@@H](CCCCN)C(=O)NCC(=O)O)C(C)C)[C@@H](C)CC [Compound 15, N{1}-acetyl,N{Epsilon-24}-[2-[2-[2-[[2-[2-[2-[[(4S)-4-carboxy-4-(17-carboxyheptadecanoylamino)butanoyl]amino]ethoxy]ethoxy]acetyl]amino]ethoxy]ethoxy]acetyl]-[D-Tyr1,Nle14,Arg18,Lys24]-hGIP(1-31)] | >45 h | 1.7 | No | 0.24 %/month | 0.74 %/month
